Assay results: ChEMBL document CHEMBL1156829
The full ranking holds about 5,400 compounds; the median of “IFI” is about 2, and the highest 2% start at about 22. The list shows a part of the results.

Assay: NOVARTIS: Inhibition Frequency Index (IFI) - the number of HTS assays where a compound showed > 50% inhibition/induction, expressed as a percentage of the number of assays in which the compound was tested.
Type: functional

Row | SMILES | IFI [%]
1 | COc1ccc(-n2nc(C(=O)NCC(=O)NCCCN3CCOCC3)c3ccccc3c2=O)cc1Cl | 0
2 | Cc1ccn2c(NC(C)(C)CC(C)(C)C)c(-c3ccccc3OC(=O)C3CCCCC3)nc2c1 | 3.74
3 | O=C(NCc1c(Cl)cccc1Sc1ccc(Cl)cc1)c1ccc2c(c1)CCO2 | 7.89
4 | Cc1ccn2c(NC(C)(C)CC(C)(C)C)c(-c3ccccc3OC(=O)c3ccccc3F)nc2c1 | 3.74
5 | CCC(C)NC(=O)CSc1nnc(-c2cccnc2)n1-c1ccc(Cl)cc1 (stereo not given) | 0
6 | CCN(CC)CCN1C(=O)c2ccccc2NC1c1ccc(Br)cc1 (stereo not given) | 4.71
7 | COc1ccc(S(=O)(=O)N=C2C=C(Nc3ccccc3)C(=O)c3ccccc32)cc1 | 0
8 | Cc1ccc(Cl)cc1N1C(=O)[C@@H]2[C@H](C1=O)C1c3ccccc3C=CN1[C@@H]2C(=O)c1cccs1 (stereo not given in full) | 9.76
9 | CCOC(=O)C1=C(C)N=c2sc(=Cc3cc(Cl)ccc3O)c(=O)n2C1c1ccc2c(c1)OCO2 (stereo not given) | 2.35
10 | CC(C)c1ccc(C2N(c3ccccc3)C3(C(=O)c4ccccc4C3=O)C(c3ccc(C(C)C)cc3)C23C(=O)c2ccccc2C3=O)cc1 (stereo not given) | 0
11 | CCN(CC)CCNc1ncnc2c1[nH]c1ccc(F)cc12 | 5.88
12 | CCC(C)NC(=O)c1nn(-c2ccc(Cl)cc2)c(=O)c2ccccc12 (stereo not given) | 0
13 | O=C1/C(=C/c2ccccc2)Oc2c1ccc(O)c2CN1CCCCC1 | 0
14 | COc1ccc(CNc2ncnc3c2[nH]c2cc(OC)ccc23)cc1 | 7.69
15 | O=C(c1cccs1)N1CCN(c2ccccn2)CC1 | 0
16 | O=C(Nc1ccc(Oc2cccnc2)cc1)C1CCN(Cc2ccc3nonc3c2)CC1 | 0
17 | OCCCNc1cc(-c2ccnc(Nc3cccc(Cl)c3)n2)ccn1 | 30.8
18 | CCOc1ccc(NC(=O)C2c3ccccc3C(=O)N(CC(C)C)C2c2cccs2)cc1 (stereo not given) | 6.25
19 | c1cc(NCc2ccc3c(c2)OCO3)n2ncc(-c3ccoc3)c2n1 | 0
20 | Cc1cc(Nc2ccc(Cl)cc2)n2nnnc2n1 | 0
21 | COc1ccc(C(C)=NNc2nnc(C)c(O)n2)cc1 | 0
22 | Cc1c2oc3c(C)ccc(C(=O)NC4C(=O)N[C@@H](C(C)C)C(=O)N5CCCC5C(=O)N(C)CC(=O)N(C)C(C(C)C)C(=O)OC4C)c3nc-2c(C(=O)NC2C(=O)N[C@H](C(C)C)C(=O)N3CCCC3C(=O)N(C)CC(=O)N(C)C(C(C)C)C(=O)OC2C)c(N)c1=O (stereo not given in full) | 21.7
23 | COc1ccc2nc(C)cc(Nc3ccc(Cl)cc3)c2c1 | 3.37
24 | COc1ccc(C2C(C(=O)Nc3cccc(OC)c3)c3ccccc3C(=O)N2C2CCCCC2)cc1 (stereo not given) | 0

Row | SMILES | IFI [%]
25 | Cc1cccc(N2CCN(c3nc4ccccc4c4nnc(C)n34)CC2)c1C | 0
26 | CCCCn1c(NN=C2C(=O)Nc3ccccc32)nc2c1c(=O)[nH]c(=O)n2C | 1.31
27 | Cc1ccc2[nH]c3c(NCCN4CCCCC4)ncnc3c2c1 | 10
28 | CC(CCCNCCO)Nc1ccnc2cc(Cl)ccc12 (stereo not given) | 2.44
29 | Cc1c(Cl)cccc1NC(=S)N1CCCN(c2ccc(C(F)(F)F)cc2[N+](=O)[O-])CC1 | 2.5
30 | CCOC(=O)C1CCN(C(=O)c2cc(C(C)(C)C)nn2Cc2ccc(Cl)cc2Cl)CC1 | 1.63
31 | CC(C)CNC(=O)c1cnc(NCCC2CCCN2C)nc1NCCc1ccccc1 (stereo not given) | 0.952
32 | O=C(CSc1ccc(Cl)cc1)NN=C1C(=O)Nc2ccccc21 | 0
33 | O=C(/C=C\c1ccccc1)Nc1ccc2[nH]c(-c3ccc(NC(=O)/C=C/c4ccccc4)cc3)nc2c1 | 0
34 | CCCC1(CCC)NC(=S)N(c2ccc(C)c(C)c2)N1 | 0
35 | COC(=O)CC(NC(=O)c1ccc(C)cc1)c1ccc2c(c1)OCO2 (stereo not given) | 1.22
36 | Fc1ccc2nc(Nc3nc(-c4ccccn4)cs3)sc2c1 | 17.6
37 | CC(C)(C)CC(C)(C)Nc1c(-c2ccccc2OC(=O)c2cccc(Cl)c2)nc2ccccn12 | 4.72
38 | CC(C)CSc1nc2sc3c(c2c(=O)n1-c1ccccc1)CCN(Cc1ccccc1)C3 | 2.5
39 | O=C(Nc1cccc(C2=NCCN2)c1)c1ccc(C(=O)Nc2cccc(C3=NCCN3)c2)cc1 | 0.893
40 | CCOC(=O)c1sc(NC(=O)C(C)Sc2nnc(CNC(=O)c3cccc(F)c3)n2-c2cccc(C)c2)c(C(=O)OCC)c1C (stereo not given) | 0
41 | O=C(NCCc1ccccc1)c1cnc(NCCCn2ccnc2)nc1NC1CCCC1 | 0.962
42 | Nc1nc(N)nc(C(c2ccccc2)c2ccccc2)n1 | 0
43 | CCOc1ccc(N=C2NC(=O)S/C2=C2/C(=O)Nc3ccc(Br)cc32)cc1 | 1.22
44 | C#CCNC(=O)c1ccc(OC2CCN(CC3CCCCC3)CC2)c(Cl)c1 | 9.72
45 | O=C(NCC1CCCO1)c1cnc(N2CCN(c3ncccn3)CC2)c2ccccc12 (stereo not given) | 6.06
46 | COc1ccc(OC)c(-c2ccc(O)c(CNC3CCCCCC3)c2)c1 | 2.97
47 | CCOC(=O)N1CCN(C(=O)C(NC(=O)C2CCC(C)CC2)C(C)C)CC1 (stereo not given) | 3.85
48 | COc1ccc(-c2cc(C(=O)Nc3cc(Oc4ccc(NC(C)=O)cc4)cc([N+](=O)[O-])c3)c3ccccc3n2)cc1 | 3.41

Row | SMILES | IFI [%]
49 | CCCCCOC(=O)C1=C(C)NC2=C(C(=O)CCC2)C1c1ccc(OC)c(Br)c1 (stereo not given) | 2.22
50 | CCOC(=O)c1nnn(-c2nonc2N)c1-c1ccc(Br)cc1 | 0
51 | CC(C)(c1ccc(Oc2ccc(NC(=O)C(F)(F)F)cc2)cc1)c1cccc(Oc2ccc(NC(=O)C(F)(F)F)cc2)c1 | 0
52 | Cc1ccc(-c2c[n+](Cc3ccc(Cl)cc3)c3n2CCC3)cc1 | 10
53 | COc1cccc(N2CCN(CCNCCOc3ccccc3)[C@@H](Cc3ccccc3)C2)c1 | 2.44
54 | CCOC(=O)C1=C(C)NC2=C(C(=O)CC(c3ccc(OC)cc3)C2)C1c1ccsc1 (stereo not given) | 0
55 | CCOc1cc(C(=O)Nc2ccc(-c3nc4ccccc4[nH]3)cc2)cc(OCC)c1OCC | 4.71
56 | CCOC(=O)C1=C(CC)NC2=C(C(=O)CCC2)C1c1ccc(N(C)C)cc1 (stereo not given) | 1.43
57 | COC(=O)c1c(C)oc2ccc(N(C(=O)c3ccc(C)cc3)S(=O)(=O)c3ccccc3)cc12 | 0
58 | O=C(O)/C=C\C(=O)N(C1CCCCC1)C1CCCCC1 | 0
59 | COc1ccc(OC)c(-c2ccc(O)c(CNCc3ccccc3OC)c2)c1 | 0.848
60 | COc1ccc(-c2c[n+](CC(=O)c3cccc(OC)c3)c3n2CCC3)cc1 | 2.5
61 | Nc1c(C(=O)Nc2ccc(F)cc2)sc2nc3c(c(-c4cccs4)c12)CCCCC3 | 8.97
62 | COc1ccc(CNC2CCN(CCN3CCCCC3)C(c3ccc(OCc4ccccc4)cc3)C2)cc1OC (stereo not given) | 11.1
63 | CCN1/C(=C/c2cccc[n+]2C)Sc2ccc(C)cc21 | 7.69
64 | CCc1ccc(C2C(C(=O)Nc3ccccc3)=C(C)Nc3c(C(=O)Nc4ccc(C)cc4)cnn32)cc1 (stereo not given) | 0
65 | CCOC(=O)C1=CN(C)C=C(C(=O)OCC)C1c1cc(Br)c(OCC)c(OC)c1 | 3.45
66 | CC(C)CNC(=O)c1cnc(NCCc2ccncc2)nc1NCCc1ccccc1 | 0.962
67 | O=C(NCc1ccco1)C1CCN(S(=O)(=O)c2ccc(Cl)cc2)CC1 | 0.885
68 | COc1ccc(OC)c(-c2ccc(O)c(CNCC3CC4C=CC3C43CC3)c2)c1 (stereo not given) | 1.71
69 | CCOC(=O)c1cnc2ccc(Cl)cc2c1Nc1ccc(OC)c(OC)c1 | 0
70 | CSc1ccccc1CN1CCc2nc(N3CCCCC3)sc2C1 | 5.56
71 | O=C(NC1CC1)C1CCN(S(=O)(=O)c2ccc(Cl)cc2)CC1 | 0
72 | O=C(NCc1ccco1)C1CCN(S(=O)(=O)c2ccc(Br)cc2)CC1 | 0

Row | SMILES | IFI [%]
73 | O=C1C(=O)N(Cc2cccc3ccccc23)c2ccc(Br)cc21 | 0
74 | CCOC(=O)NN=CC=NNC(=O)OCC | 1.09
75 | O=C(Nc1ccc(-c2nc3cc(NC(=O)C(c4ccccc4)c4ccccc4)ccc3[nH]2)cc1)C(c1ccccc1)c1ccccc1 | 0
76 | CCCCCCN(C(=O)c1ccc(C(C)(C)C)cc1)C(CC)c1nc2ccccc2c(=O)n1-c1ccc(F)cc1 (stereo not given) | 3.88
77 | Cc1cccc2cc(C(c3nnnn3C3CCCC3)N3CCCC4(CCCCC4)C3)c(=O)[nH]c12 (stereo not given) | 3.88
78 | CCC(c1nc2ccccc2c(=O)n1-c1ccc(F)c(Cl)c1)N(CCc1ccccc1)C(=O)COc1ccccc1 (stereo not given) | 1.87
79 | CC1CCCCN1CCCNc1ncc(C(=O)NCC2CCCO2)c(NCCc2ccccc2)n1 (stereo not given) | 2.88
80 | Nc1ccc(-c2nc3cc(Oc4ccc5[nH]c(-c6ccc(N)cc6)nc5c4)ccc3[nH]2)cc1 | 15.4
81 | Clc1ccc(-c2nc3cc(Cl)cnc3[nH]2)cc1 | 0
82 | CCc1ccc(O)c(-c2cc(C(=O)Nc3cccnc3)[nH]n2)c1 | 6.67
83 | CCOCc1nnc(NC(=O)COc2ccc(Cl)cc2Cl)s1 | 0
84 | CC(=O)N(C1=C(N2CCN(C)CC2)C(=O)c2ccccc2C1=O)c1cc(C)cc(C)c1 | 7.14
85 | Cc1nnc2sc(SCc3ccc([N+](=O)[O-])cc3)nn2c1=O | 0
86 | Cc1nn(CC(O)Cn2c3ccc(Cl)cc3c3cc(Cl)ccc32)c(C)c1Br (stereo not given) | 0
87 | CCCc1ccc(OCCNC(=O)CCNC(=O)Nc2cccc(Cl)c2)cc1 | 0
88 | CCCCNC1=CC(=O)C(=O)c2ccccc21 | 15.4
89 | Oc1ccc(-c2nc(-c3ccc4oc5ccc(-c6[nH]c(-c7ccc(O)cc7)nc6-c6ccccc6)cc5c4c3)c(-c3ccccc3)[nH]2)cc1 | 0
90 | COc1cccc(N2C(=O)/C(=C/c3cccnc3)SC2=S)c1 | 0
91 | O=C1NN(c2ccc(Br)cc2)C(=O)/C1=C\c1c(O)ccc2ccccc12 | 0
92 | Cn1c(=O)n(C)c2cc(C=NN=c3[nH]cc(-c4ccccc4)s3)ccc21 | 0
93 | CC(C)CNC(=O)c1cnc(NCCCN(C)C)nc1NCC1CCCCC1 | 3.88
94 | Fc1ccc(CCNc2ncnc3c2[nH]c2ccccc23)cc1 | 14.6
95 | Cc1ccc(Cn2c(N3CCC(C(=O)NCc4ccccn4)CC3)nc3ccccc32)cc1 | 0
